# Reference: the supplement of paper PMC8728848
# The list shows a part of the results.
# How the values were obtained:
# Test in all cases: glycan array binding signal (z-score within array); higher = stronger binding
# Conditions in all cases: glycan notation: IUPAC condensed, linker removed; mutation: R85A
# [1] = target: Neu5Ac(a2-3)Gal(b1-4)GlcNAc(b1-3)Gal(b1-4)GlcNAc(b1-3)Gal(b1-4)GlcNAc
# Summary of the method: (§1)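 Glycan array binding is given as a within-array Z-score, which can be read as non-binding when negative. The arrays, 3228 of them, came from the Consortium for Functional Glycomics database and were retained only where the protein sequence was available. Z-scores were averaged across arrays of the same protein sequence at different concentrations or buffers and across linkers.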
# [2] = target: Neu5Ac(a2-3)Gal(b1-4)GlcNAc(b1-3)Gal(b1-4)[Fuc(a1-3)]GlcNAc
# Summary of the method: as §1
# [3] = target: Neu5Ac(a2-3)Gal(b1-4)GlcNAc(b1-3)GalNAc
# Summary of the method: as §1
# [4] = target: Neu5Ac(a2-3)Gal(b1-4)GlcNAc(b1-6)[Gal(b1-3)]GalNAc
# Summary of the method: as §1
# [5] = target: Neu5Ac(a2-3)Gal(b1-4)GlcNAc(b1-6)[Neu5Ac(a2-3)Gal(b1-3)]GalNAc
# Summary of the method: as §1
# [6] = target: Neu5Ac(a2-3)Gal(b1-4)GlcNAc6S
# Summary of the method: as §1
# [7] = target: Neu5Ac(a2-3)Gal(b1-4)[Fuc(a1-3)]GlcNAc
# Summary of the method: as §1
# [8] = target: Neu5Ac(a2-3)Gal(b1-4)[Fuc(a1-3)]GlcNAc(b1-3)Gal
# Summary of the method: as §1
# [9] = target: Neu5Ac(a2-3)Gal(b1-4)[Fuc(a1-3)]GlcNAc(b1-3)Gal(b1-4)GlcNAc
# Summary of the method: as §1
# [10] = target: Neu5Ac(a2-3)Gal(b1-4)[Fuc(a1-3)]GlcNAc(b1-3)Gal(b1-4)[Fuc(a1-3)]GlcNAc(b1-3)Gal(b1-4)[Fuc(a1-3)]GlcNAc
# Summary of the method: as §1
# [11] = target: Neu5Ac(a2-3)Gal(b1-4)[Fuc(a1-3)]GlcNAc(b1-3)GalNAc
# Summary of the method: as §1
# [12] = target: Neu5Ac(a2-3)Gal(b1-4)[Fuc(a1-3)]GlcNAc(b1-6)[Gal(b1-3)]GalNAc
# Summary of the method: as §1
# [13] = target: Neu5Ac(a2-3)Gal(b1-4)[Fuc(a1-3)]GlcNAc(b1-6)[Neu5Ac(a2-3)Gal(b1-3)]GalNAc
# Summary of the method: as §1
# [14] = target: Neu5Ac(a2-3)Gal(b1-4)[Fuc(a1-3)]GlcNAc6S
# Summary of the method: as §1
# [15] = target: Neu5Ac(a2-3)Gal6S(b1-4)GlcNAc
# Summary of the method: as §1
# [16] = target: Neu5Ac(a2-3)Gal6S(b1-4)[Fuc(a1-3)]GlcNAc
# Summary of the method: as §1
# [17] = target: Neu5Ac(a2-3)GalNAc
# Summary of the method: as §1
# [18] = target: Neu5Ac(a2-3)GalNAc(b1-4)GlcNAc
# Summary of the method: as §1
# [19] = target: Neu5Ac(a2-3)[GalNAc(b1-4)]Gal(b1-4)Glc
# Summary of the method: as §1
# [20] = target: Neu5Ac(a2-3)[GalNAc(b1-4)]Gal(b1-4)GlcNAc
# Summary of the method: as §1
# [21] = target: Neu5Ac(a2-3)[GalNAc(b1-4)]Gal(b1-4)GlcNAc(b1-3)GalNAc
# Summary of the method: as §1
# [22] = target: Neu5Ac(a2-3)[Neu5Ac(a2-6)]GalNAc
# Summary of the method: as §1
# [23] = target: Neu5Ac(a2-6)Gal
# Summary of the method: as §1
# [24] = target: Neu5Ac(a2-6)Gal(b1-4)Glc
# Summary of the method: as §1
# [25] = target: Neu5Ac(a2-6)Gal(b1-4)GlcNAc
# Summary of the method: as §1
# [26] = target: Neu5Ac(a2-6)Gal(b1-4)GlcNAc(b1-2)Man(a1-3)Man(b1-4)GlcNAc(b1-4)GlcNAc
# Summary of the method: as §1
# [27] = target: Neu5Ac(a2-6)Gal(b1-4)GlcNAc(b1-2)Man(a1-3)[Gal(b1-4)GlcNAc(b1-2)Man(a1-6)]Man(b1-4)GlcNAc(b1-4)GlcNAc
# Summary of the method: as §1
# [28] = target: Neu5Ac(a2-6)Gal(b1-4)GlcNAc(b1-2)Man(a1-3)[GlcNAc(b1-2)Man(a1-6)]Man(b1-4)GlcNAc(b1-4)GlcNAc
# Summary of the method: as §1
# [29] = target: Neu5Ac(a2-6)Gal(b1-4)GlcNAc(b1-2)Man(a1-3)[GlcNAc(b1-2)Man(b1-4)GlcNAc(b1-2)Man(a1-6)]Man(b1-4)GlcNAc(b1-4)GlcNAc
# Summary of the method: as §1
# [30] = target: Neu5Ac(a2-6)Gal(b1-4)GlcNAc(b1-2)Man(a1-3)[Man(a1-6)]Man(b1-4)GlcNAc(b1-4)GlcNAc
# Summary of the method: as §1
# [31] = target: Neu5Ac(a2-6)Gal(b1-4)GlcNAc(b1-2)Man(a1-3)[Neu5Ac(a2-6)Gal(b1-4)GlcNAc(b1-2)Man(a1-6)]Man(b1-4)GlcNAc(b1-4)GlcNAc
# Summary of the method: as §1
# [32] = target: Neu5Ac(a2-6)Gal(b1-4)GlcNAc(b1-2)Man(a1-6)Man(b1-4)GlcNAc(b1-4)GlcNAc
# Summary of the method: as §1
# [33] = target: Neu5Ac(a2-6)Gal(b1-4)GlcNAc(b1-2)Man(a1-6)[Gal(b1-4)GlcNAc(b1-2)Man(a1-3)]Man(b1-4)GlcNAc(b1-4)GlcNAc
# Summary of the method: as §1
# [34] = target: Neu5Ac(a2-6)Gal(b1-4)GlcNAc(b1-2)Man(a1-6)[GlcNAc(b1-2)Man(a1-3)]Man(b1-4)GlcNAc(b1-4)GlcNAc
# Summary of the method: as §1
# [35] = target: Neu5Ac(a2-6)Gal(b1-4)GlcNAc(b1-2)Man(a1-6)[Man(a1-3)]Man(b1-4)GlcNAc(b1-4)GlcNAc
# Summary of the method: as §1
# [36] = target: Neu5Ac(a2-6)Gal(b1-4)GlcNAc(b1-3)Gal(b1-3)GlcNAc
# Summary of the method: as §1
# [37] = target: Neu5Ac(a2-6)Gal(b1-4)GlcNAc(b1-3)Gal(b1-4)GlcNAc
# Summary of the method: as §1
# [38] = target: Neu5Ac(a2-6)Gal(b1-4)GlcNAc(b1-3)Gal(b1-4)GlcNAc(b1-3)Gal(b1-4)GlcNAc
# Summary of the method: as §1
# [39] = target: Neu5Ac(a2-6)Gal(b1-4)GlcNAc(b1-3)Gal(b1-4)[Fuc(a1-3)]GlcNAc(b1-3)Gal(b1-4)[Fuc(a1-3)]GlcNAc
# Summary of the method: as §1
# [40] = target: Neu5Ac(a2-6)Gal(b1-4)GlcNAc(b1-3)GalNAc
# Summary of the method: as §1
# [41] = target: Neu5Ac(a2-6)Gal(b1-4)GlcNAc6S
# Summary of the method: as §1
# [42] = target: Neu5Ac(a2-6)GalNAc
# Summary of the method: as §1
# [43] = target: Neu5Ac(a2-6)GalNAc(b1-4)GlcNAc
# Summary of the method: as §1
# [44] = target: Neu5Ac(a2-6)GlcNAc(b1-4)GlcNAc
# Summary of the method: as §1
# [45] = target: Neu5Ac(a2-6)GlcNAc(b1-4)GlcNAc(b1-4)GlcNAc
# Summary of the method: as §1
binder,measurement,setting,value
"rAAL (Agrocybe aegerita), Q6WY08 (protein) MQGVNIYNISAGTSVDLAAPVTTGDIVTFFSSALNLNAGAGNPNNTTLNLFAENGAYLLHIAFRLQENVIIFNSRQPDGPWLVEQAVSDVANQFAGIDGKAMVTVFDHGDKYQVVINEKTVIQYTKQISGLTLSLSYNATEETSIFSTVVEAVTYTGLALEHHHHHH",glycan array binding signal (z-score),[1],-0.126
same,glycan array binding signal (z-score),[2],-0.14
same,glycan array binding signal (z-score),[3],-0.135
same,glycan array binding signal (z-score),[4],-0.134
same,glycan array binding signal (z-score),[5],-0.045
same,glycan array binding signal (z-score),[6],-0.133
same,glycan array binding signal (z-score),[7],-0.134
same,glycan array binding signal (z-score),[8],-0.154
same,glycan array binding signal (z-score),[9],-0.105
same,glycan array binding signal (z-score),[10],-0.146
same,glycan array binding signal (z-score),[11],-0.096
same,glycan array binding signal (z-score),[12],-0.097
same,glycan array binding signal (z-score),[13],-0.135
same,glycan array binding signal (z-score),[14],-0.136
same,glycan array binding signal (z-score),[15],-0.139
same,glycan array binding signal (z-score),[16],-0.133
same,glycan array binding signal (z-score),[17],-0.131
same,glycan array binding signal (z-score),[18],-0.127
same,glycan array binding signal (z-score),[19],-0.125
same,glycan array binding signal (z-score),[20],-0.14
same,glycan array binding signal (z-score),[21],-0.14
same,glycan array binding signal (z-score),[22],-0.136
same,glycan array binding signal (z-score),[23],-0.121
same,glycan array binding signal (z-score),[24],-0.008
same,glycan array binding signal (z-score),[25],-0.129
same,glycan array binding signal (z-score),[26],-0.124
same,glycan array binding signal (z-score),[27],-0.118
same,glycan array binding signal (z-score),[28],-0.133
same,glycan array binding signal (z-score),[29],-0.112
same,glycan array binding signal (z-score),[30],-0.139
same,glycan array binding signal (z-score),[31],-0.121
same,glycan array binding signal (z-score),[32],-0.136
same,glycan array binding signal (z-score),[33],-0.14
same,glycan array binding signal (z-score),[34],-0.138
same,glycan array binding signal (z-score),[35],-0.132
same,glycan array binding signal (z-score),[36],-0.135
same,glycan array binding signal (z-score),[37],-0.114
same,glycan array binding signal (z-score),[38],-0.127
same,glycan array binding signal (z-score),[39],-0.13
same,glycan array binding signal (z-score),[40],1.17
same,glycan array binding signal (z-score),[41],-0.149
same,glycan array binding signal (z-score),[42],-0.134
same,glycan array binding signal (z-score),[43],-0.132
same,glycan array binding signal (z-score),[44],-0.135
same,glycan array binding signal (z-score),[45],-0.128
